# Data from the supplement of paper PMC9135407.
# Several values for one entry are separate records, joined by “and”; a condition that tells them apart may be missing. Identical values can stand only once. Counter-ions that a name gives are not always drawn. The whole screen tested about 5,800 compounds, of which about 620 (11%) showed activity.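 How the source made its calls: active = score above a cut-off or among the top three wells of a plate; in these data no inactive exceeds 0.85.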 The entries are a selection whose mix differs from that of the whole data set.
# System: primary human hepatic stellate cells (donor 1)
# Experiment: scaled lipid accumulation score (0 = DMSO-like, 1 = nortriptyline-like); higher = stronger HSC inactivation (lipid re-accumulation), active = hit call of the paper
# Settings: 48 h
# [1] = library stock concentration: 10 mM
# [2] = library stock concentration: 80 uM
# [3] = library stock concentration: 400 uM
# [4] = library stock concentration: 2 mM
# [5] = library stock concentration: 3.33 mM
# [6] = library stock concentration: 1 mM
# [7] = library stock concentration: 6 mM
structure (smiles),measurement,setting,value
CCCCCCCCCCC(C)(C)C(=O)Nc1c(OC)cc(OC)cc1OC,scaled lipid accumulation score,[1],inactive: 0.164 and inactive: ≤ -0.001
"CN=C(N)NCCC[C@H](N)C(=O)O [L-Ornithine, N5-[imino(methylamino)methyl]-[CAS]]",scaled lipid accumulation score,[1],inactive: ≤ 0
CCOC(=O)c1ccc(N2NC(=O)C(=Cc3ccc([N+](=O)[O-])o3)C2=O)cc1,scaled lipid accumulation score,[2],inactive: ≤ -0.001
same,scaled lipid accumulation score,[3],inactive: ≤ -0.001
same,scaled lipid accumulation score,[4],inactive: ≤ -0.001
same,scaled lipid accumulation score,[5],inactive: ≤ -0.009
same,scaled lipid accumulation score,[1],inactive: 0.131 and inactive: ≤ -0.001
CC[C@]12CCCN3CCc4c(n(c5ccccc45)C(=O)C1)[C@@H]32 [Eburnamonine (-)],scaled lipid accumulation score,,inactive: ≤ 0
CCCCC(=O)Oc1ccccc1C(=O)O [Valeroyl Salicylate],scaled lipid accumulation score,[6],inactive: ≤ 0
C[C@@H](Oc1cc(-c2cnn(C3CCNCC3)c2)cnc1N)c1c(Cl)ccc(F)c1Cl,scaled lipid accumulation score,[5],active: 0.909
same,scaled lipid accumulation score,[1],active: 0.863
CCCCCCCCCCCCCCCCCCCCCC(=O)NCCS(=O)(=O)O [N-Docosanoyl Taurine],scaled lipid accumulation score,[6],inactive: ≤ 0
CCn1cc(C(=O)O)c(=O)c2cc(F)c(N3CCN(C)CC3)cc21,scaled lipid accumulation score,[1],inactive: ≤ 0
CCn1cc(C(=O)O)c(=O)c2cc(F)c(N3CCN(C)CC3)cc21 [Pefloxacine mesylate],scaled lipid accumulation score,library stock concentration: 4.7 mM,inactive: ≤ 0
same,scaled lipid accumulation score,[7],inactive: 0.013
same,scaled lipid accumulation score,[1],inactive: ≤ -0.027
CCn1cc(C(=O)O)c(=O)c2cc(F)c(N3CCN(C)CC3)cc21 [Pefloxacin Mesylate],scaled lipid accumulation score,[5],inactive: ≤ 0
same,scaled lipid accumulation score,[1],inactive: 0.034
CCn1cc(C(=O)O)c(=O)c2cc(F)c(N3CCN(C)CC3)cc21 [Pefloxacin Mesylate Dihydrate],scaled lipid accumulation score,[5],inactive: ≤ 0
same,scaled lipid accumulation score,[1],inactive: ≤ 0
CC(N)(C(=O)O)c1ccc(C(=O)O)cc1 (stereo not given),scaled lipid accumulation score,[1],inactive: 0.151
Cc1ccc(S(=O)(=O)NCl)cc1,scaled lipid accumulation score,[1],inactive: ≤ 0
CCCCCCCC(=O)CC[C@@H]1[C@@H](C/C=C\CCCC(=O)OC(C)C)[C@@H](O)C[C@H]1O [Unoprostone isopropyl ester],scaled lipid accumulation score,[6],inactive: ≤ 0
CCOC(=O)c1c(C)[nH]c2ccc3c(c12)CN1CCc2cc(OC)ccc2C1O3 (stereo not given),scaled lipid accumulation score,[1],inactive: 0.648
O[C@H]1[C@H](O)[C@@H](O)[C@@H]2O[C@@H]2[C@@H]1O (racemic) [Conduritol b epoxide],scaled lipid accumulation score,library stock concentration: 12.3 mM,inactive: ≤ 0
C[C@@H]1O[C@@H]1P(=O)(O)O [Fosfomycin],scaled lipid accumulation score,[1],inactive: ≤ 0
C[C@@H]1O[C@@H]1P(=O)(O)O [Phosphomycin disodium],scaled lipid accumulation score,[1],inactive: ≤ -0.055
Cn1c(=O)c2[nH]c(-c3ccc(S(=O)(=O)O)cc3)nc2n(C)c1=O [8-(p-Sulfophenyl)theophylline],scaled lipid accumulation score,[1],inactive: ≤ 0
C[C@@H]1CN(c2c(F)c(N)c3c(=O)c(C(=O)O)cn(C4CC4)c3c2F)C[C@H](C)N1 [Sparfloxacin],scaled lipid accumulation score,[5],inactive: 0.027
same,scaled lipid accumulation score,library stock concentration: 5.1 mM,inactive: ≤ 0
same,scaled lipid accumulation score,[1],inactive: ≤ 0
CN1CCN(C(c2ccccc2)c2ccc(Cl)cc2)CC1 (stereo not given) [Chlorcyclizine hydrochloride],scaled lipid accumulation score,,inactive: 0.377
same,scaled lipid accumulation score,library stock concentration: 5.9 mM,inactive: 0.391
O=C(N/N=C/c1ccc([N+](=O)[O-])o1)c1ccc(O)cc1 [Nifuroxazide],scaled lipid accumulation score,,inactive: ≤ 0
same,scaled lipid accumulation score,[5],inactive: 0.007
same,scaled lipid accumulation score,[1],inactive: 0.454
Cc1cccc(Nc2cc(Cl)nc(SCC(=O)O)n2)c1C,scaled lipid accumulation score,[6],inactive: 0.006 and inactive: ≤ -0.021
same,scaled lipid accumulation score,[5],inactive: ≤ -0.009
same,scaled lipid accumulation score,[1],inactive: ≤ 0 and inactive: ≤ -0.006
CCOc1cc2ncc(C#N)c(Nc3ccc(OCc4ccccn4)c(Cl)c3)c2cc1NC(=O)/C=C/CN(C)C,scaled lipid accumulation score,[2],inactive: ≤ 0
same,scaled lipid accumulation score,[3],inactive: ≤ 0
same,scaled lipid accumulation score,[4],inactive: 0.107
same,scaled lipid accumulation score,[1],inactive: 0.02
"O=C1C=CC(=O)c2c1ccc1c2ccc2ccccc21 [Chrysene-1,4-quinone]",scaled lipid accumulation score,,inactive: 0.829
CN(Cc1ccccc1)C(=O)[C@H](Cc1ccc2ccccc2c1)NC(=O)[C@@H]1C[C@@H](O)CN1C(=O)c1cn(C)c2ccccc12,scaled lipid accumulation score,[1],inactive: 0.019
Cc1cn([C@@H]2C[C@@H](O)[C@H](CO)O2)c(=O)[nH]c1=O [Telbivudine],scaled lipid accumulation score,[5],inactive: ≤ 0
same,scaled lipid accumulation score,[1],inactive: ≤ 0
NC(=O)c1ncn([C@@H]2O[C@H](CO)[C@@H](O)[C@H]2O)c1O [Mizoribine],scaled lipid accumulation score,[1],inactive: ≤ -0.055
CC(=O)Nc1ccc(S(=O)(=O)Nc2ccc([N+](=O)[O-])cc2)cc1 [Sulfanitran],scaled lipid accumulation score,[7],inactive: ≤ 0
same,scaled lipid accumulation score,[1],inactive: 0.168
CCC(=O)[C@@]1(C)[C@H](C)C[C@H]2[C@@H]3CCC4=CC(=O)C=C[C@]4(C)[C@H]3[C@@H](O)C[C@@]21C [Rimexolone],scaled lipid accumulation score,,inactive: ≤ 0
Cc1ccc(C(=O)Nc2ccc(S(=O)(=O)O)c3cc(S(=O)(=O)O)cc(S(=O)(=O)O)c23)cc1NC(=O)c1cccc(NC(=O)Nc2cccc(C(=O)Nc3cc(C(=O)Nc4ccc(S(=O)(=O)O)c5cc(S(=O)(=O)O)cc(S(=O)(=O)O)c45)ccc3C)c2)c1 [Suramin],scaled lipid accumulation score,library stock concentration: 1.4 mM,inactive: 0.072
Cc1ccc(C(=O)Nc2ccc(S(=O)(=O)O)c3cc(S(=O)(=O)O)cc(S(=O)(=O)O)c23)cc1NC(=O)c1cccc(NC(=O)Nc2cccc(C(=O)Nc3cc(C(=O)Nc4ccc(S(=O)(=O)O)c5cc(S(=O)(=O)O)cc(S(=O)(=O)O)c45)ccc3C)c2)c1 [Suramin hexasodium salt],scaled lipid accumulation score,[1],inactive: ≤ -0.006
Cc1ccc(C(=O)Nc2ccc(S(=O)(=O)O)c3cc(S(=O)(=O)O)cc(S(=O)(=O)O)c23)cc1NC(=O)c1cccc(NC(=O)Nc2cccc(C(=O)Nc3cc(C(=O)Nc4ccc(S(=O)(=O)O)c5cc(S(=O)(=O)O)cc(S(=O)(=O)O)c45)ccc3C)c2)c1 [Suramin sodium salt],scaled lipid accumulation score,[1],inactive: ≤ 0
CCCCCCCCCCCCCCCC(=O)N[C@H]1CCOC1=O [N-hexadecanoyl-L-Homoserine lactone],scaled lipid accumulation score,[6],inactive: ≤ 0
CCc1cc(C(N)=S)ccn1 [Ethionamide],scaled lipid accumulation score,,inactive: ≤ 0
same,scaled lipid accumulation score,[5],inactive: ≤ 0
same,scaled lipid accumulation score,[1],inactive: ≤ 0
same,scaled lipid accumulation score,library stock concentration: 12 mM,inactive: 0.022
CCc1cc(C(N)=S)ccn1,scaled lipid accumulation score,[1],inactive: ≤ 0
